# Results as given in the RNAGym collection of RNA variant scans (doi:10.1073/pnas.2313332121).
# This sample is rich in variants without activity.
# B1: TPR 5TU (parent)
# chain: GGAUCUUCUCGAUCUAACAAAAAAGACAAAUCUGCCACAAAGCUUGAGAGCAUCUUCGGAUGCAGAGGCGGCAGCCUUCGGUGGCGCGAUAGCGCCAACGUUCUCAACUAUGACACGCAAAACGCGUGCUCCGUUGAAUGGAGUUUAUCAUG
# Variants of: B1
# Test: polymerase ribozyme fitness, log enrichment relative to wild type (log ratio); higher = more active; in vitro selection for triplet polymerase activity
# Procedure, shortened: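 Streptavidin-bead capture of gel-excised extended constructs, followed by RT-PCR, closed a single triplicate in vitro selection round. That round began by annealing PCR-built, transcribed mutant libraries of each subunit of a heterodimeric triplet polymerase ribozyme with a biotinylated primer, the partner subunit and triplets, then incubating them frozen at −7 °C. After Illumina sequencing of inputs and outputs, genotypes needed ≥10 input reads and ≥1 read per output. Fitness is the base-2 logarithm of genotype enrichment over wild-type enrichment, using inverse-variance-weighted replicate averages.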
row,Variant,polymerase ribozyme fitness (log ratio)
1,A17G G70A C85G,≤ -4.2
2,C18U A24G A29U C36A U45A C51U C96A A106G,≤ -4.2
3,A17C A19G C32A A52U G92U,≤ -4.2
4,C18A C32U A52U C87G C105A U135A,≤ -4.2
5,C18U A49U C57G A60C C96U A115U U135G,≤ -4.2
6,A17U C32A A37U A41U,≤ -4.2
7,A17C G84C A142G,-3.21
8,C18U A22U G65C C85A,≤ -4.2
9,A17U G71A C87G G140U,≤ -4.2
10,C18A A20U C69A G88U C93G C99G U111A G124A G140C,≤ -4.2
11,C18A A19U G50C A52U C93U,≤ -4.2
12,A17C U53G U55A A121G,-1.71
13,A17G C87A U135A U151A,≤ -4.2
14,C18U A39G U53C,-3.19
15,A17G U53C A73G U139A A142U U146G,≤ -4.2
16,A17G A49C C51U G86C,≤ -4.2
17,A17G C38A C54G C75G C93U U102A G124U U135C,≤ -4.2
18,A17G A47C C85U G133U,≤ -4.2
19,C18G A22U G34A A39U C72U G81C C96U A107C,≤ -4.2
20,C18U G65C C93U U148G,≤ -4.2
21,C18U A29U A30U G70C C149G,≤ -4.2
22,A17U A28G C85A A120C C125A,≤ -4.2
23,A17U A29U A47G A49U C87G G92U U151A,≤ -4.2
24,A17U A39C U56G A60U C75A U102A U134A A150G,≤ -4.2

row,Variant,polymerase ribozyme fitness (log ratio)
1,C18G C38G G81C C93G,≤ -4.2
2,C18G A52U G68A C75A U78A G92A C103A A122C U134A,≤ -4.2
3,A17U C54G G70U A120U G128U A142G,≤ -4.2
4,A17G C35A G67C C96U C114U C116U,≤ -4.2
5,A17G C75A U134A A138U,≤ -4.2
6,A17G A49U G71C C79A A106U,≤ -4.2
7,C18U A21C U55A,-0.649
8,A17G G92A C103A C149A,≤ -4.2
9,C18U G80U U148C,-3.99
10,A17U U44G C85U A150C,≤ -4.2
11,A17G A22U C76U C96U A107U G136U,≤ -4.2
12,A17U A22U G25C C79U C96U U102G C103A C105U,≤ -4.2
13,A17U G25C A30G A60U C69U G94U C103A U135G G141C A147U,≤ -4.2
14,C18U A30U U55A G62A C72U G86U,≤ -4.2
15,A17U A40C C43G A52G G92C G128C,≤ -4.2
16,A17C C36U A47G C54A C85A C118A U127G U134C U151A,≤ -4.2
17,A17U U56G C125G,-1.81
18,C18G G83A U145G U151G,≤ -4.2
19,C18G U53A C57U G59C U61A C95G,-3.99
20,A17G A26U G42C C87G G124A,≤ -4.2
21,C18U A52C U90C G92U C99U G136C,≤ -4.2
22,A17U G25C C125U U134A,≤ -4.2
23,A17C C32U,-1.61
24,C18G A28G A47C C51A C93U,≤ -4.2

row,Variant,polymerase ribozyme fitness (log ratio)
1,C18A A21U A30C C54U C69G C76A C87A G140C,≤ -4.2
2,C18U A39U G88C C95A A97G C125A,≤ -4.2
3,A17U A49C U55A G59A C87G C96U,≤ -4.2
4,C18A A60U C85U U148G,≤ -4.2
5,A17G A49C C54U G80C C131G,≤ -4.2
6,A17U A40C G50U C87A A98U G117U,≤ -4.2
7,C18U G50C G59U C93U C95G U102G U135A,≤ -4.2
8,C18G C85U U101C,-0.76
9,A17U A22U A23C A24U G59C U61G C85A C95U,≤ -4.2
10,C18G G84C G86A A137G A138G U151G,≤ -4.2
11,A17C A24U C32A G50A C51A A52G C85U C103U,≤ -4.2
12,A17U G42C A52U C75A C79G G92C C118U G140C,≤ -4.2
13,A17G A41U A64G G68C,≤ -4.2
14,A17G A24U A30U U77G G126C,≤ -4.2
15,C18A A29U G92U C131G,≤ -4.2
16,C18G A28U G48A U55A U82G A91U A137C,≤ -4.2
17,C18G A20U A21U C43U G46U U61A A64C G65A,≤ -4.2
18,A17U G81A G84A,-0.321
19,C18G C27G U45A C105G A106G U151A,≤ -4.2
20,C18U G88A G133C G141U,≤ -4.2
21,A17U A19G C36U G42C G50A A73U A147C,≤ -4.2
22,C18U G34U G70A C85U C87U A91C G117A,≤ -4.2
23,C18G C76G C85A U145A,≤ -4.2
24,A17G G50U A66G G92C C95U G141A,≤ -4.2

row,Variant,polymerase ribozyme fitness (log ratio)
1,A17C G46A G70A G81A G86C U135G,≤ -4.2
2,C18U G88A G92A C132G U148A,≤ -4.2
3,C18U C36A C95A C149U U151C,≤ -4.2
4,A17G U53A C79A G141C,≤ -4.2
5,A17G G25C A49C C93U A107G C116A,≤ -4.2
6,C18U A60U C63A G84A U127A,≤ -4.2
7,C18U C38U C87G C99U C105G,≤ -4.2
8,A17U C38A U53A G74A C95U,≤ -4.2
9,A17G A26G C85U U102G C103A A137G,≤ -4.2
10,A17C A28G A30U C54A A91G G94A A137G,≤ -4.2
11,A17U G42A A113U,≤ -4.2
12,C18G A66G A73U U90A C93A,≤ -4.2
13,A17U A24U A39G C63G,-4.15
14,A17U C54A,-1.45
15,A17C A28U G46U A98U A107G A113G G133U,≤ -4.2
16,A17G C18A A29C A37C C96A A107G G124C U151G,≤ -4.2
17,A17G C63A C118G A142U,-2.32
18,A17U C87A A98G C132U G136A,≤ -4.2
19,A17G A28U G83C U134G,≤ -4.2
20,A17G C57A A91G C95G A122U,-4.04
21,A17G C35U U53A G94A,-1.28
22,A17U A30U G42A C95A A138G,≤ -4.2
23,A17U G58A C76U C87A A120G G133U,≤ -4.2
24,A17G A40C C85U C125A G126U,≤ -4.2

row,Variant,polymerase ribozyme fitness (log ratio)
1,A17C C85G C108G G140A,≤ -4.2
2,A17C G25U A30C U33A A60U U102A,≤ -4.2
3,C18U A22U U53G C96A,-3.13
4,C18G C54U G83A C93G G152U,≤ -4.2
5,C18G A21C A23C C54U C72A U82G C93G C96G U102C U135A,≤ -4.2
6,C18G A19U A23C G67C G126A G143U U144C,≤ -4.2
7,C18U C131A,-2.6
8,A17G A29C A47C C51A U82A G84A,≤ -4.2
9,C18G A20C A52G A73U A120G,-3.02
10,A17U A19G A22U C93A,-4.01
11,A17C U33A C76U C93U U145G,≤ -4.2
12,A17G C27A G140C G143U U144A,≤ -4.2
13,A17C A24G A47C C72U G88U A120C A121G,≤ -4.2
14,A17G A41U U55A C85G A137U U148A,≤ -4.2
15,A17G A39G A66G C72U,≤ -4.2
16,A17U U90G C93A A107G,≤ -4.2
17,A17G A49C G58C C76A C87G C114U,≤ -4.2
18,A17C A23U G42C C75U G86A A138C,≤ -4.2
19,C18G U44G C87U C96A A106G,≤ -4.2
20,A17C A24U U45A A49C A64G C76G G83C C95A U148A,≤ -4.2
21,C18U C87G,≤ -4.2
22,C18U A30G G86A A142C,≤ -4.2
23,A17C C69U C76G,≤ -4.2
24,C18G A24U C87A C123U G133A U139G U145G,≤ -4.2

row,Variant,polymerase ribozyme fitness (log ratio)
1,A17U A22G A49G C63A C69U A73U,≤ -4.2
2,C18G A29C C35A A89U G128A U144G,≤ -4.2
3,A17G C93G C95U,≤ -4.2
4,C18G C38A C93U C105U A113C,-4.17
5,A17G C43G U77C C108A,≤ -4.2
6,C18U A19C A40U C85G G100A C132G,≤ -4.2
7,A17C A24G A39U U56A C103G G136U,≤ -4.2
8,A17C A41G G74A C76G C85U A115C U135A G140A,≤ -4.2
9,A17G U33G G62U G80U C85U A115U U135C U148G,≤ -4.2
10,C18G A20U A28G A41U,≤ -4.2
11,A17C C57U A66C G81A U146G U148G,≤ -4.2
12,A17U A37U G48C G59A G88A C149U,≤ -4.2
13,C18U G58A C75G C93U U144A,≤ -4.2
14,A17U A24C A26G C57U G86A,≤ -4.2
15,A17C G25C C38A A49U U56G G92C U135C,≤ -4.2
16,C18G C32G C54U G80U U101G U148C G152A,≤ -4.2
17,A17U C27U U53A C54U C57A C85U A89G C96A C108U A137G,≤ -4.2
18,A17C G74C C87U G92C C105G G136U,≤ -4.2
19,A17G C32G U33G U77G C87U U101A A147U,≤ -4.2
20,A17U A21G A22C C38U A66U U82C G100A C125U,≤ -4.2
21,C18U A41G C51U A115C G140U,-3.82
22,A17U A28C C87A,≤ -4.2
23,A17G A37G C54A C57U A91U C125G C132U G143A,≤ -4.2
24,A17G A47C C87A G88C A91U U111A,≤ -4.2

row,Variant,polymerase ribozyme fitness (log ratio)
1,A17C A66C G70A G88A C93U G94C U148A,≤ -4.2
2,C18A A24C C35U G92U A115C,≤ -4.2
3,A17G G59A C85U G92C C103A A122U,≤ -4.2
4,C18G A24G A30U U55A U78A C85U G86C G140U,≤ -4.2
5,A17G A26C A40C G86U A98C C99A C108G A120G,≤ -4.2
6,A17U A19C C38A G42C U56A U78G A113U C132G A142G U148A,≤ -4.2
7,A17G A21G A29G G81A C93G G112U C118A U135A,≤ -4.2
8,A17G C63A C79U G86A A150G,≤ -4.2
9,A17G C57A C85G G88A G140C G141U,≤ -4.2
10,A17C A20C G100A,≤ -4.2
11,C18G A21G,-0.433
12,C18A A19C U44A G84U C99G,≤ -4.2
13,A17G A40U U44G C69U G83U,≤ -4.2
14,A17U A64G C87U U90G,≤ -4.2
15,A17U G86U A110U,≤ -4.2
16,A17U A40C G58C C76U G84U U144G,-0.372
17,C18A A19U C76A C85U C99U U104G A110G G143C,≤ -4.2
18,A17U A49G C85G C87G U127A G152U,≤ -4.2
19,A17U A30C U31C G48A U56A U90G G92A G117U G140C U148A,≤ -4.2
20,A17G G62U G68U C96A C105G U134G,≤ -4.2
21,A17U C95U C99A A107G G133U,≤ -4.2
22,A17G G34A C51U G128U A142G,≤ -4.2
23,A17U A49G C85U C116A,-0.0919
